Source: PubChem BioAssay AID463173 (ICCB-Longwood Screening Facility, Harvard Medical School, 2010)
Screen size: about 52,000 compounds; about 1,700 (3.3%) were called active. Rule as the data show it: active = survival mostly below about 52% (no sharp cut-off); inactive = mostly above about 56%. The list shows a part of the results.

What follows are molecules tested on Wild type (assay: growth inhibition of S. aureus wild type versus tarO mutant, primary screen, teichoic acid synthesis inhibitors, RN4220, OD600 (AID 463173)). Conditions: S. aureus RN4220 wild type/DeltatarO growth, OD600, 18 h, active compounds read low, screened at 18.75 µg/mL (by protocol).

Q: `O=C(NCCc1ccccc1)c1ccc2c(c1)N(Cc1ccc(F)cc1)C(=O)c1ccccc1S2(=O)=O` was tested. Which survival did it give?
A: Its survival is inactive: 156%.

Q: Which survival does the source give for `CC1CCc2c(sc3nc(-c4cc5cc(Br)ccc5oc4=O)[nH]c(=O)c23)C1` (centres undefined) here?
A: The survival was inactive: 88%.

Q: `N#CC(C#N)=Cc1cn(Cc2ccccc2)c2ccccc12` was tested. Which survival did it give?
A: Its survival is inactive: 99%.

Q: For `O=C(CCS(=O)(=O)c1cccc2nonc12)Nc1c(F)cccc1F`, which survival is on record?
A: The survival was inactive: 63%.

Q: For `Cc1cc(C)cc(NC(=O)N2CCC3(CC2)Oc2ccccc2C(=O)N3Cc2ccccc2F)c1`, which survival is on record?
A: Its survival is inactive: 79%.

Q: `NC(=O)c1ccc(-c2ccccc2)cc1C(N)=O` was tested. Which survival did it give?
A: Its survival is inactive: 109%.

Q: Which survival does the source give for `Cc1cc(N2CC34C=CC(O3)C(C(=O)O)C4C2=O)no1` (centres undefined) here?
A: Its survival is inactive: 94%.

Q: Which survival does the source give for `CCOC(=O)c1ccc(CN(Cc2ccc(F)cc2)S(=O)(=O)c2ccc(F)c(C(=O)Nc3ccc(Cl)cc3F)c2)cc1` here?
A: Its survival is inactive: 71%.

Q: `CCN(CC)S(=O)(=O)c1ccc(S(=O)(=O)NCc2ccc3c(c2)OCO3)cc1` was tested. Which survival did it give?
A: The survival was inactive: 108%.

Q: How did the survival turn out when `COc1cccc(N2CCN(C(=O)c3cccc(-n4c(C)nc5cccnc54)c3)CC2)c1` was run?
A: The survival was inactive: 74%.

Q: Which survival does the source give for `O=S(=O)(Nc1ccc(Br)cc1F)c1ccc2nc(-c3ccccc3)[nH]c2c1` here?
A: Its survival is inactive: 71%.

Q: Which survival does the source give for `CCOc1ccc(NC(=O)c2c(NCc3cccnc3)sc3c2CCCC3)cc1` here?
A: The survival was inactive: 146%.

Q: For `COc1ccc(Br)c(C(=O)Nc2cc3c(cc2N2CCOCC2)n(C)c(=O)n3C)c1`, which survival is on record?
A: Its survival is inactive: 79%.

Q: `CCCn1c(-c2ccc(F)cc2)cnc1SCC(=O)N1CCCCC1C` (centres undefined) was tested. Which survival did it give?
A: The survival was inactive: 112%.

Q: For `CCC(C)C(NC(=O)c1cc(C)oc1C)C(=O)O` (centres undefined), which survival is on record?
A: Its survival is inactive: 107%.

Q: With `C=Cc1ccc(Cn2c(C(=O)O)c(CNC3CCCCC3)c3ccc(C)cc32)cc1` as the molecule, how does the survival read?
A: Its survival is inactive: 79%.

Q: For `COc1ccc(CCn2c(=O)c3cccnc3n(CC(=O)Nc3ccc(C)c(F)c3)c2=O)cc1OC`, which survival is on record?
A: Its survival is inactive: 87%.

Q: Which survival does the source give for `COc1ccc(-c2nnc(SCC(=O)Nc3cccc(C(F)(F)F)c3)nc2-c2ccc(OC)cc2)cc1` here?
A: Its survival is inactive: 79%.

Q: Which survival does the source give for `CC(C)NC(=O)Cn1cnc2c1c(=O)n(C)c(=O)n2C` here?
A: The survival was inactive: 100%.

Q: For `CCOC(=O)c1[nH]c2c(c1Cc1ccccc1C)C(=O)CC(c1cc(OC)ccc1OC)C2` (centres undefined), which survival is on record?
A: Its survival is inactive: 91%.

Q: `CC(C)COc1ccc(C(=O)Nc2cc3nn(-c4ccccc4)nc3cc2Cl)cc1` was tested. Which survival did it give?
A: The survival was inactive: 57%.

Q: With `CCc1nn2c(=O)cc(COc3ccc(/C=C(\C#N)C(=O)Nc4ccc(F)cc4)cc3OC)nc2s1` as the molecule, how does the survival read?
A: The survival was inactive: 143%.

Q: How did the survival turn out when `CCOc1ccc(OCC)c(NC(=O)C2CCN(S(=O)(=O)c3c(C)noc3/C=C/c3ccccc3F)CC2)c1` was run?
A: Its survival is inactive: 99%.

Q: With `O=C(COc1ccccc1)NCCc1csc(-c2ccc(Cl)cc2)n1` as the molecule, how does the survival read?
A: The survival was inactive: 71%.
